The RNAGym collection of RNA variant scans (doi:10.7554/elife.90254)
Read counts are not given, so values of variants with three or more changes are uncertain.

B1: LINE1-mini (parent)
chain: GGCAGAGCUCAACACAGCGUGGCAAAGUGGCUGUGGCUAGACUGCC

Variants of: B1
Experiment: self-cleavage, relative activity (ratio to wild type); higher = more cleavage; in vitro, sequencing; the parent is a self-cleaving ribozyme
Variant G1A G2C C15A G44U has a self-cleavage of 0.1. For G1A G5U G19U, the self-cleavage was 0.04. With G1A G19C G30A C31U A39C the self-cleavage was 0.04. In the case of G1A G5C C31A, the self-cleavage is reported as 0.05. In the case of G1A G2A G36U, the self-cleavage is reported as 0.96. With G1A G5U U28G G33A G44C the self-cleavage was 0.02. For G1A G2U A6G G22A U34C, the self-cleavage was 0.06. For G1A G5C A24U A39G, the self-cleavage was 0.05. With G1A G2C U9A G17A G29C the self-cleavage was 0.1. With G1A G21U G40C the self-cleavage was 0.07. G1A G17C A39C showed a self-cleavage of 0.04. With G1A G2U C3U C10G U28G the self-cleavage was 0.03. G1A G19A C23U A25G A39C showed a self-cleavage of 0.07. Work on G1A G5U U9C C10A G44C yielded a self-cleavage of 0.03. G1A G17C C37U showed a self-cleavage of 0.12. For G1A G5A A12G C18U, the self-cleavage was 0.17. In the case of G1A G2C G35A G44U, the self-cleavage is reported as 0.28. In the case of G1A G21U G36U, the self-cleavage is reported as 0.02. For G1A G19C U20A, the self-cleavage was 0.15. With G1A G2A A39G the self-cleavage was 1. For G1A G17A C31A, the self-cleavage was 0.04. Work on G1A G22C U34G G36C yielded a self-cleavage of 0.11. Work on G1A G2A G7A C37A yielded a self-cleavage of 1.36. In the case of G1A G17C C46U, the self-cleavage is reported as 1.96. G1A G2U A6G C31U C45A showed a self-cleavage of 0.02. Work on G1A G17A A25C yielded a self-cleavage of 0.12. G1A G2U G21U U38A C45A showed a self-cleavage of 0.17. Variant G1A C31U G40A has a self-cleavage of 0.01. Work on G1A C31U G40C yielded a self-cleavage of 0.06. With G1A G5A C8U A12C A14C A16U C42G G44U the self-cleavage was 0.02. In the case of G1A G17A C23U U34C G35A G36A G44A C45U, the self-cleavage is reported as 0.01. In the case of G1A C31A G44A, the self-cleavage is reported as 0.03. In the case of G1A G22U U32A G40A, the self-cleavage is reported as 0.05. In the case of G1A G2U A6U G7C C10G U34C G40A C46U, the self-cleavage is reported as 0.04. In the case of G1A C31U G40C C45U, the self-cleavage is reported as 0.05. For G1A G2U C8U C18G G27U G36C, the self-cleavage was 0.17. With G1A G21U C45A the self-cleavage was 0.6. G1A C42G C45A showed a self-cleavage of 0.03. For G1A G5A C46G, the self-cleavage was 0.21. In the case of G1A G5A A24U C31G C42U, the self-cleavage is reported as 0.04. Work on G1A G17C U38G yielded a self-cleavage of 0.04. G1A G30C G33A showed a self-cleavage of 0.08. G1A G7A A16C U20G G30U showed a self-cleavage of 0.26. G1A G29U C31G U32G gave a self-cleavage of 0.06. For G1A G2A A24C G27A U28G G35C, the self-cleavage was 0.76. With G1A G19C G22C A39G the self-cleavage was 0.04. G1A G5C G27C G29U C46U showed a self-cleavage of 0.02. G1A G19C G35U gave a self-cleavage of 0.09. In the case of G1A G5U G21U, the self-cleavage is reported as 0.13. For G1A G2U A25G G30U C37U, the self-cleavage was 0.06. G1A G5U G7C U9G A16G C18U C46G showed a self-cleavage of 0.04. For G1A G21C C31A, the self-cleavage was 0.09. With G1A G2A C31G U38G U43G the self-cleavage was 0.08. Work on G1A G7U U9C A14G G40U yielded a self-cleavage of 0.13. Variant G1A G2C C10A C31U has a self-cleavage of 0.04. G1A C42A G44A gave a self-cleavage of 0.02. For G1A G21U C42A, the self-cleavage was 0.24. G1A G5A G17U U20C A26U C31U gave a self-cleavage of 0.24. Variant G1A C31U C45A has a self-cleavage of 0.03. In the case of G1A G5U C31G G40C, the self-cleavage is reported as 0.04. Work on G1A G5U U20G A41C yielded a self-cleavage of 0.1. In the case of G1A G7A U9G U20C A24U, the self-cleavage is reported as 0.05. Variant G1A G5U A6U C18G G19C U20A G33U has a self-cleavage of 0.06. Work on G1A G5A G7C C18G G27U A41G yielded a self-cleavage of 0.48. For G1A G5A U9A C31A G44A, the self-cleavage was 0.23. G1A G2A G7C showed a self-cleavage of 1.61. Work on G1A G7U G17C C23G G35U A41C yielded a self-cleavage of 0.09. G1A G5A C10A C37A gave a self-cleavage of 0.05. Work on G1A G2U A11U U38C yielded a self-cleavage of 0.03. In the case of G1A G27U G35C, the self-cleavage is reported as 0.07. With G1A G17U G30U C46G the self-cleavage was 0.43. For G1A G22C C23U G44U, the self-cleavage was 1.19. For G1A G2U G5U C10A, the self-cleavage was 0.13. Variant G1A G5C C10A A14C C37G has a self-cleavage of 0.04. Work on G1A G2A C8U U9C C15A U32G C37U C45A yielded a self-cleavage of 0.1. Work on G1A G17C U20A G29C U32G G40U yielded a self-cleavage of 0.01. G1A G2U C10A A14C G22U G27C U28A G40U gave a self-cleavage of 0.01. With G1A G5U U32G C42A the self-cleavage was 0.07. G1A C37G U38C showed a self-cleavage of 0.24. G1A C42U U43C C46G showed a self-cleavage of 0.19. G1A G2U A4U C10G A25G G44A gave a self-cleavage of 0.02. For G1A G27U G33U C42U, the self-cleavage was 0.04. Variant G1A G7C G19C G27U U32A U38A has a self-cleavage of 0.05. G1A G7C C15A G44U gave a self-cleavage of 0. Work on G1A G7C G27U C42U U43C yielded a self-cleavage of 0.55. Variant G1A G7C A11C has a self-cleavage of 0.03. G1A G7C A11U gave a self-cleavage of 0.05. For G1A C31U C42U, the self-cleavage was 0.04. For G1A G17U U28A G29C, the self-cleavage was 2.59. Variant G1A G2C G21U U32G has a self-cleavage of 0.05. With G1A G7U A24C G30U A41C the self-cleavage was 0.06. G1A G7C C18A G21A gave a self-cleavage of 1.01. G1A G2U A16C C42U gave a self-cleavage of 0.02. G1A G29A G33U C46G showed a self-cleavage of 0.12. With G1A G7A A12G U28G G30C C46G the self-cleavage was 0.07. In the case of G1A G2A G5U, the self-cleavage is reported as 0.95. With G1A G7C G17A U34G C45U the self-cleavage was 0.07. G1A G19C G40U gave a self-cleavage of 0.03. Variant G1A G2A A25C U28C U34C has a self-cleavage of 0.56. G1A G2U C3A A41U showed a self-cleavage of 1.97. G1A G5C U32A C45A gave a self-cleavage of 0.1. With G1A G21U C31A C37U U38G the self-cleavage was 0.05. G1A G2U A14C showed a self-cleavage of 0.04. Work on G1A G5A G36U U43C yielded a self-cleavage of 0.09. Variant G1A G2C A4G G30A U34G U38G has a self-cleavage of 0.04. Variant G1A G22A C31A has a self-cleavage of 1.04. G1A G30A G44U showed a self-cleavage of 0.14. With G1A C31G G36U the self-cleavage was 0.15. G1A G5C G7C A26U showed a self-cleavage of 0.3. Variant G1A G7A C10U C18U G40C has a self-cleavage of 0.12. G1A G19A C23U showed a self-cleavage of 0.1. G1A G5C A11G A12U C15U C23G A24C G29A G36C gave a self-cleavage of 0.01. In the case of G1A G17U A25G, the self-cleavage is reported as 0.01. For G1A G2C G5A C15G G17A, the self-cleavage was 0.47. With G1A G2A G17A C18G A26G the self-cleavage was 0.73. In the case of G1A G7C G17A G33U, the self-cleavage is reported as 0.27. Variant G1A G2A U32A G36A has a self-cleavage of 0.17. G1A G2C C31U G36U U43A gave a self-cleavage of 0.01. Work on G1A G2U A16U U38G yielded a self-cleavage of 0.02. G1A G2A A16C gave a self-cleavage of 0.22. G1A G5U C13U A25U U28A C46G showed a self-cleavage of 0.06. Work on G1A G5C C23A G35U yielded a self-cleavage of 0.07. In the case of G1A G5U A12C, the self-cleavage is reported as 0.04. G1A G29A U34C G44C gave a self-cleavage of 0.07. G1A G29A U32G gave a self-cleavage of 0.09. Work on G1A G5A C42A C45G yielded a self-cleavage of 0.12. Variant G1A G7C A14G C15A G36C has a self-cleavage of 0.39. G1A G19U C37A A39C showed a self-cleavage of 0.03. With G1A C31A G40C the self-cleavage was 0.08. Variant G1A G7U A14C has a self-cleavage of 0.11. G1A G2U G19A G35A G40C gave a self-cleavage of 0.03. In the case of G1A G7C C13G G35A, the self-cleavage is reported as 0.16. Variant G1A G7U A24C A41G has a self-cleavage of 0.24. Work on G1A G22C A41U yielded a self-cleavage of 0.92. Variant G1A G2C A11G C15U A41C C46A has a self-cleavage of 0. G1A G21U G29C showed a self-cleavage of 0.07. For G1A G17A G40U, the self-cleavage was 0.14. Work on G1A G7A G17A yielded a self-cleavage of 0.23. G1A G2A A12C G17C showed a self-cleavage of 0.11. G1A G7C G36C gave a self-cleavage of 0.13. Variant G1A G7A A14C has a self-cleavage of 0.12. Variant G1A G22U C46A has a self-cleavage of 1.67. Variant G1A G5C G7C G19A U34C G36U has a self-cleavage of 0.14. For G1A G2U U28G C42G, the self-cleavage was 0.03. G1A G5C A12C G33A G36A showed a self-cleavage of 0.05. For G1A G19A U20G A25U, the self-cleavage was 0.16. Variant G1A G2A C31A U32A G33U has a self-cleavage of 0.61. G1A G5C C15U G21C C31G showed a self-cleavage of 0.1. G1A G5C C13U A16G G33U gave a self-cleavage of 0.02. Work on G1A G2C G17U C18U yielded a self-cleavage of 0.03. Work on G1A G5A A11C G22A U28G C31U yielded a self-cleavage of 0.03. G1A G2C G5A C8U A24C gave a self-cleavage of 0.13. Work on G1A G2U G7A U20A yielded a self-cleavage of 0.21. G1A G17U G40U showed a self-cleavage of 0.03. With G1A G7A G19C G35C A41C U43A the self-cleavage was 0.12. G1A G2A C10G C18G G19C C23A A24G gave a self-cleavage of 0.02. Variant G1A G7C A16U G33U G40U has a self-cleavage of 0.07. G1A G2C C13A A41U gave a self-cleavage of 0.21. G1A G17C A25G showed a self-cleavage of 0.09. G1A G2C C8U C10A C37U gave a self-cleavage of 0.02. With G1A G5A C10A G30U the self-cleavage was 0.14. G1A G7A G21A U32G gave a self-cleavage of 0.81. With G1A G17U G19C U43C the self-cleavage was 0.07. G1A G30C G40A gave a self-cleavage of 0.05. For G1A G19U G21C G33C, the self-cleavage was 0.13. In the case of G1A G5C U34C, the self-cleavage is reported as 0.15. With G1A G22U G30U G36A the self-cleavage was 0.09.
